This passage reports binding signal results from PMC12136788.

This is one part of the list.

To fix the notation:
T1: UNK ZnF1-3 (human, UniProt Q9C0B0 31-174)
T1 sequence: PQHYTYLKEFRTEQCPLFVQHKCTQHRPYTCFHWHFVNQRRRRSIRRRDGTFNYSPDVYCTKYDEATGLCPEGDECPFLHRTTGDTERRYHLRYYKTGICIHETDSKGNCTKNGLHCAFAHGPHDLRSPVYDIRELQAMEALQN

B1: chr14:76904430:76904431:+_ENSMUSG00000022010_ENSMUST00000022587|mus_mus|mus_mus_mus_hu_True|38_108 (ssRNA)
RNA: GGGAGUUCUACAGUCCGACGAUCUGCUGGAAAAAAAACCCUCGUGGAAAAAAAGAGGGAACACCAGCAGCCUUGUAUAAGCUAGAUAAAAUCUUCUAGCUGUCUGCAGCCCAGGGAGAAACAGAAAACGGCAGCCCUAAUUUACAACAGAGGAUUGAGCAUCA
B2: chr2:219460011:219460012:+_ENSG00000144580_ENST00000542068|hu_mus|FALSE|FALSE (ssRNA)
RNA: GGGAGUUCUACAGUCCGACGAUCAAACUCAUUCAGCUGCUUCUACAAUCAUGAGGAGAUGGCACUAUGAAAACUCACGCUAGAGAACGGGGUCAAGUAGUCUACCAUUUGGAUCCAGGCGCUUACUCCGUUUGAGAAGACACCCAACAGAGGAUUGAGCAUCA
B3: chr10:61154552:61154553:+_ENSMUSG00000020088_ENSMUST00000020285|mus_mus|FALSE|FALSE (ssRNA)
RNA: GGGAGUUCUACAGUCCGACGAUCCAGAGCCCAAUGCGCUAUCUGUUCAUAAUUUUAUGAAGUAUGUAAAUUUCAUUUACUAGUUAAAAAAAAAGAAUAGAAAAUCUGGACCAAGUAAAUUGUGAACUGAAAAAGUUAGAGAAGCAACAGAGGAUUGAGCAUCA
B4: chr9:95013113:95013114:-_ENSG00000196305_ENST00000443024|hu_hu|hu_hu_hu_mus_False|8_58 (ssRNA)
RNA: GGGAGUUCUACAGUCCGACGAUCCUCAGUCAGAAAGGGCGUGUAAGGGGCCAUCAGUCUGCACAGAGAAAGCAGGACACUAAACAAUGUCUCCAGAGCCAUGACACAGUCUUCCACCCCACUCUCACCCUUUAAUCUCCUCCUCAACAGAGGAUUGAGCAUCA
B5: chr1:165664616:165664617:-_ENSG00000143149_ENST00000354775|hu_hu|FALSE|FALSE (ssRNA)
RNA: GGGAGUUCUACAGUCCGACGAUCCUUUGCAUUUUGAACAGCCAAAUUUACUUCCUUUUCUCCUGAACAUGUGAAAGUAGCUAUCACUCGGCCGGUUGCUGGCUCGAAAGCUUUCUCGGUACCGGAGGCGUCCGCCGGCUCCACCAACAGAGGAUUGAGCAUCA
B6: chr6:99849430:99849431:-_ENSG00000132424_ENST00000438806|hu_mus|FALSE|FALSE (ssRNA)
RNA: GGGAGUUCUACAGUCCGACGAUCUCUUUUCUUGUCAUUGACCGCAUCACGGUCGGCUUCACUUGCUUCUAGAAGUGAUAAACUAUUUUGCUCUCUGUGAAUAAAUUCAUUCAUCUCUUUUGUAACCCUUUCUGUUUGCUGCUUCAACAGAGGAUUGAGCAUCA
B7: chr1:201104638:201104639:-_ENSG00000116857_ENST00000367334|hu_mus|FALSE|FALSE (ssRNA)
RNA: GGGAGUUCUACAGUCCGACGAUCCAGAGACCUACAGAGACCCAAUCACACUCCCUCGUUAUAACAGUCGAGUACAUUUCUAGAGAGGGAGAAGGAUAAACGCCAUGGGCAUUUGAAGGGAAGACCCAGGGAAGACUGCAGUGACAACAGAGGAUUGAGCAUCA
B8: 147080382_147080502_6135_CDS_ENSMUSG00000025272_ENSMUST00000087258|mouse|control|control (ssRNA)
RNA: GGGAGUUCUACAGUCCGACGAUCACUACCAAAGCCAGCUGCAGUGCUUGGUCCUCCGAAGCCACCUCCAGUGCUUGGUCCUCCGAAGCCACCUCCAGUGCUUGGUCCUCCAAAGCCACCUCCAGUGCUUGGUCCUCCAAAGCCCAACAGAGGAUUGAGCAUCA
B9: chr3:176768308:176768309:-_ENSG00000177565_ENST00000430069|hu_mus|FALSE|FALSE (ssRNA)
RNA: GGGAGUUCUACAGUCCGACGAUCACUGAGGUUCCAGAUUCUUGCCGUGGAGUCUCCAGACCCUGAUGCCAGGAGAUCACUAACAGGGUUCCAGGCACAGAUGAAAACUUCAGAUUCAUGGCCCCGAAGCACAACCGCUUUAUUCAACAGAGGAUUGAGCAUCA
B10: 90432816_90432936_438_3pUTR_ENSMUSG00000053414_ENSMUST00000065856|mouse|control|control (ssRNA)
RNA: GGGAGUUCUACAGUCCGACGAUCUGCCACCAGGACACAGCUCCAUGACCAGGUAGUAGCUGUUCUCUGUCUCCAAGAUGUCCAGGAGCUGUGUGAUGUUGGGGUGUCGGAUCAUCUGCUGGAUCUGCCCCUCUCGACGCAGGUCAACAGAGGAUUGAGCAUCA
B11: 151567571_151572471_2246_3pUTR_ENSMUSG00000034021_ENSMUST00000016569|mouse|control|control (ssRNA)
RNA: GGGAGUUCUACAGUCCGACGAUCAUUUGUAGUGCAGCUUCUGCCACCUUCUCAUCAUCCAUCUUCAGACAAGCCAGAAGGGACUCAAACGUCUCAGCAGAGUGAAAGGAGAUAGGGUGCGUAAAAGACAGCACCUUCAGCAGCCAACAGAGGAUUGAGCAUCA
B12: chr1:225611761:225611762:-_ENSG00000143815_ENST00000272163|hu_mus|hu_hu_hu_mus_True|38_58 (ssRNA)
RNA: GGGAGUUCUACAGUCCGACGAUCCCAGGCCAUCGGCCUCUGACCACUUCACCCUCAACAAACUUCCUACUUGGCAUUUUCUAUAAUUAGUCUGGCCCAGGUUCCGGGGGAACUCCAGCCACUCCAGGACAGUCACCAGCAGCCCAACAGAGGAUUGAGCAUCA
B13: chr11:12883819:12883820:+_ENSG00000187079_ENST00000361905|hu_mus|motif|central (ssRNA)
RNA: GGGAGUUCUACAGUCCGACGAUCAAUGUGACUAGACACCUGCUUCCUGGUCCUUGUCUUUCCCGUCCUGAGUUUGAUGUAUCUGGCGGUCAAUUCAUUUCUACCAUACAUUUUGCCUUCGUCUGAUAAGAUGAUUUUUCUCCUCAACAGAGGAUUGAGCAUCA
B14: 145887673_145887793_1067_CDS_ENSMUSG00000029622_ENSMUST00000085679|mouse|control|control (ssRNA)
RNA: GGGAGUUCUACAGUCCGACGAUCGUUCUUGUGCAGUGAAUCCAGGCCGGCCCCAGUGGCUGCACCCCCCUCAGAGCUGGCCUUCUUGUCCAGGUUCUGGAAGCGCUCUCGGGCUGUCAUGCCACGCUGGGAGCUCUGCUUGGGCAACAGAGGAUUGAGCAUCA
B15: chr2:217001844:217001845:+_ENSG00000079246_ENST00000392132|hu_hu|hu_hu_hu_mus_False|78_108 (ssRNA)
RNA: GGGAGUUCUACAGUCCGACGAUCACCGACUUGAGGAUUAGAUCUUUUGUCAUAAGCAUAUCGAACUAUGGCGACCAUGUUUAACUCAUCCAAAGCAUGAACGAGAGAGGAAAGGGCAACAGCUGCCGCCUCAUCAUCCUUUGCCAACAGAGGAUUGAGCAUCA
B16: chr19:47151266:47151267:-_ENSG00000197380_ENST00000391916|hu_hu|FALSE|FALSE (ssRNA)
RNA: GGGAGUUCUACAGUCCGACGAUCCUGCAGGGACCACCUGAGUCAGACACAGAGUCUCUGACCAGGGUGCCAAGGGGAUAUCUUAAGGGUCCAGGGACAUGGAGGGGGCACUUUGUGAAUGAGAGGGGGCCAUAGCUGGGCAAGCAACAGAGGAUUGAGCAUCA
B17: chrX:148277548:148277549:+_ENSMUSG00000025261_ENSMUST00000112622|mus_mus|motif|central (ssRNA)
RNA: GGGAGUUCUACAGUCCGACGAUCAAGGACUGCCAGCACCACUUGCAUAUCAGAGGAAGCCAAUAAAGUUGUCAAAUGCUCGGUGGAACUGUACAGAUGCCGAGAAAAGCUGUACUCAAUGAGCAAGGCUGUGAAGUUCAAUACCAACAGAGGAUUGAGCAUCA
B18: chr14:76904430:76904431:+_ENSMUSG00000022010_ENSMUST00000022587|mus_mus|mus_mus_mus_hu_True|28_58 (ssRNA)
RNA: GGGAGUUCUACAGUCCGACGAUCUGCAGCCAAAAACACCCUCGUGGAAAAAAAGAGGGAACACCAGCAGCCUUGUACAAACUAGAUAAAAUCUUCUGGCUUUCCGCAGCUCAGGGCGAAACAGAAAACGGCAGCCCUAAUUUACAACAGAGGAUUGAGCAUCA
B19: chr1:154686295:154686296:-_ENSMUSG00000042772_ENSMUST00000043560|mus_mus|FALSE|FALSE (ssRNA)
RNA: GGGAGUUCUACAGUCCGACGAUCACAUUUCGUGCACACUCAGCGGGCUGGUGGAACACUUACACCCUCUCGACAGCAAGAAACAGACAAGAGAGCUGCCACCUGCAGAGACUGUGUGGGUCAGUCCUGCAAACCCAACAUGCCCAACAGAGGAUUGAGCAUCA
B20: chr6:170627217:170627218:+_ENSG00000112584_ENST00000537664|hu_mus|FALSE|FALSE (ssRNA)
RNA: GGGAGUUCUACAGUCCGACGAUCAUUUCCUUUUUUGCCAGCAUUCUCUUUCACAGAAGCAUAGGAUGACAAGCACUUGUACCGAAAGCUUUCAAACAUGCUCUCUGGAGUGAUGUCAUUGCCAAGCAGACAGGCCAGAAGAGGCAACAGAGGAUUGAGCAUCA
B21: 32355961_32364089_3172_CDS_ENSG00000056097_ENST00000265069|human|control|control (ssRNA)
RNA: GGGAGUUCUACAGUCCGACGAUCGUUAAAACGUUGGCUCAUUUGCGGUAAUGGAUCCAUGCCUAGAACUUUGUGUAUCUGGCGGAAUGCAAGGAGUCUCAAUGCAAACUGUGCACUGGAUGUGAUGUCUUCACGCUGCUGGUCCAACAGAGGAUUGAGCAUCA
B22: chr3:170585912:170585913:-_ENSG00000163584_ENST00000463836|hu_mus|FALSE|FALSE (ssRNA)
RNA: GGGAGUUCUACAGUCCGACGAUCGUGAACAACAUUGCCAAGAUUUCCAGUUUUUCCAUUGACUUUAACCUUCUCCCGUAGAAACUGUUCAAAAUUUCCAGAGUCAAAAAUUCCAUCUUCUACUGGAUGAGUAAGGUCCAAAUGCAACAGAGGAUUGAGCAUCA

The assay deals with T1, UNK ZnF1-3. As to the kind of experiment: nsRBNS (natural sequence RNA bind-n-seq); RBNS binding buffer (assumed for nsRBNS): 25 mM Tris pH 7.5, 150 mM KCl, 3 mM MgCl2, 0.01% Triton X-100, 500 ug/ml BSA, 20 U/ml SUPERase-In, 4 C; UNK is unkempt and MSI1 is Musashi-1; names of the RNAs are library labels; protein concentration not given here; high values mean tight binding.
B1 returned a binding signal of 2.82 enrichment R.
In the case of B2 it was 1.31 enrichment R.
For the molecule B3, the binding signal was 1.7 enrichment R.
With B4, the binding signal was 1.43 enrichment R.
B5 had a binding signal of 0.853 enrichment R.
In the case of B6 it was 0.452 enrichment R; in that of B7, 1.54 enrichment R.
In the case of B8 it was 1.13 enrichment R; in that of B9, 1.16 enrichment R; in that of B10, 0.458 enrichment R.
In the case of B11 it was 1.02 enrichment R; in that of B12, 1.45 enrichment R.
Molecule B13 came in with a binding signal of 0.401 enrichment R.
On to B14, for which the binding signal came out at 0.815 enrichment R.
In the case of B15, the binding signal was 1.8 enrichment R.
The value for B16 was 1.54 enrichment R.
In the case of B17 it was 1.79 enrichment R; in that of B18, 1.67 enrichment R.
In the case of B19 it was 0.881 enrichment R; in that of B20, 0.956 enrichment R.
B21 came in with a binding signal of 0.879 enrichment R.
In the case of B22 it was 0.723 enrichment R.
